The chains are these.
B1: TPR 5TU (parent)
chain: GGAUCUUCUCGAUCUAACAAAAAAGACAAAUCUGCCACAAAGCUUGAGAGCAUCUUCGGAUGCAGAGGCGGCAGCCUUCGGUGGCGCGAUAGCGCCAACGUUCUCAACUAUGACACGCAAAACGCGUGCUCCGUUGAAUGGAGUUUAUCAUG

This sample is rich in variants without activity. Some results are limits rather than exact numbers.

Variants of B1 are the subject of the data set. Description: polymerase ribozyme fitness, log enrichment relative to wild type (log ratio); higher = more active; in vitro selection for triplet polymerase activity. The method, boiled down:
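Fitness is a logarithmic measure of how a genotype enriched relative to the wild type, with replicate averages weighted by inverse variance. The logarithm uses base 2, and enrichment came from Illumina sequencing of input and output libraries. Those libraries were PCR-built, transcribed mutants of each subunit of a heterodimeric triplet polymerase ribozyme, passed through one triplicate in vitro selection round that included frozen incubation at −7 °C, gel excision of extended constructs and streptavidin-bead capture. Genotypes were kept only if they had ≥10 input reads and ≥1 read per output.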
As for GGCUCUUCUCGAUCUAACAAAAAAGACAAAUCUGCUACAAAGCUUGAGAGCAUCUUCGGAUGCAGAGGCGGCAGCCUUCGGUAGCGCGAUAGCGCCAACGUUCUCAACUAUGACACGCAAAACGCGUGCUCCGUUGAAUGGAGUUUAUCAUG, the “polymerase ribozyme fitness (log ratio)” value was -3.09.
For GGCUCUUCUCGAUCUGACAAAAAUGACAAAUCUGCCACACAGCUUGAGAGCAUCUUCGGAUGCAGAGGCGGCAGCCUUCGGUGGCGCGAUGGCGCCAACGUUCUCAACUAUGACACGCAAAACGCGUGCUCCGUUGAAUGGAGUUUAUCAUG, the “polymerase ribozyme fitness (log ratio)” value was at most -4.2.
The same measure for GGCUCUUGUCCAUCUAACAAAAAAGACAAAUCUGCCACAAAGUUUGAGAGCAUCUUCGGAUGCAGAAGCGGCAGCCUUCGGUGGCGCGAUAGCGCGAACGUCCUCAACUAUGACACGCAAAACGCGUGCUCCGUUGAAUGGAGUUUAUCAUG: at most -4.2; for GGCUCUUCUCGAUCUAACAAAAAAGACAAAUCUGCCACAAAGCUUGAGCGCAUCUUCGGAUGCAGAGGCGGCAGCCGUCGGUGGCGCGAUAGCGCCAAUGUUCUCAAUUAUGACACGCAAAACCCGUGCUCCGUUGAAUGGAGUUUAUCAUG: at most -4.2; for GGCUCUUCUCGAUCUAACAAAAAAGACAAAUCUGCCACAAAGCUUGAGAGCAUCUUCGGAUGCAGAGGCGGCAGCCUUCGGUGGAGCGAUAGCGCCAACGUUCUCAACUAUGACACGCAAAACGCGUGCACGGUUGAAUGGAGUUUAUCAUG: at most -4.2.
The same measure for GGCUCUUCUCGAUCUAACAAAAAAGACAAAUCUGCCACAAAGCUUGAGCGCAUCUUCGGAUGCAAAGGCGGCAGCCUUCGGUGGCGCGAUAGCGCGAACGUUCUCAACUAUGACACGCAAAACGCGUGCUCCGUUGAAUGGAGUUUAUCAUG: at most -4.2; for GGCUCUUCUCGAUCUAACAAAAAAGACAAAUCUGCCACAAAGCUUGAGAGCAUCUUCGGAUGCAGAGGCGGCAGCCUUCGGUGGUGCGAUAGCGCCAACGUUCUCAACUAUGACACGCAAAACGCGUGCUCCGUUGAAUGCAGUUUAUCAUG: -2.07; for GGCUCUUCUCGAUCUAUCAAAAAAGACAAAUCUGCCACAAAGCUUGAGAUCAUCUUCGGAUGCAGAGGCGGCAGCCUUCGGUGGUGCGAUAGCGCCAACGUUCUCAAUUAUGACACGCAAAACGCGUGCUCCGUUGAAUGGAGUUUAUCAUG: at most -4.2.
The same measure for GGCUCUUCUCGAUCUAACAAAAAAGACUAAUCUGCCACAAAGCUUGAGAGCCUCUUCGGAUGCAGAGUCGGCAGCCUUCGGUGGCGCGAUGGCGCCAACGUUCUCAACUAUGAAACGCAAAACGCGUGCUCCGUUGAAUGGAGUUUAUCAUG: at most -4.2; for GGCUCUUCUCGAUCUAACAAAAAAGACAAAUCUGCCACAAAGUUUGAGAGCAUCUUCGGAUGCAGAGGCGGCAGCCUUCGGUGGCGCGUUAACGCCAACGUUCUCAACUAUGACACGCAAAACGGGUGCUCCGUUGAAUGGAGUUUAUCAUG: at most -4.2; for GGCUCUUCUCGAUCUAACAAAAAAGACAAAUCUGCCACAAAGCUUGAGAGCAUCUUCGGAUGCAGAGGCGGCAGCCUUCGGUGGCUCGAUAUCGCCAACGUUCUGAACUAUGACACGCAAAACGCGUGCUCCGUUGAAUGGAGUUUAUCAUG: at most -4.2.
Take GGCUCUUCUCGAUCUAACAAAAAAGAGAAAUCUGCCACAAAGCUUGAGAGCAUCUUCGAAUGCAGAGGCGGCAGCCUUCGAUGGCGGGAUAGCGCCAACGUUCUCAACUAUGACACGCAAAACGCGUGCUCCGUUGAAUGGAGUUUAUCAUG: the “polymerase ribozyme fitness (log ratio)” value was at most -4.2.
Regarding GGCUCUUCUCGAUCUAACGAAAAAGACAAAUCUGCCACAAAGCUUGAGGGCAUCUUCGGAUGCAGAGGCGGCAGCCUUCGGUGGCGCGAUAGUGCCAACGUUCUCAACUAUGACACGCAAAACGCAUGCUCCGUUGAAUGGAGUUUAUCAUG, the “polymerase ribozyme fitness (log ratio)” value is at most -4.2.
For the variant GGCUCUUCUCGAUCUAACAAAAAAUACAAAUCUGCCACAAAGCUUGAGAGCAUCUUUGGAUGCAGAGGCGGCAGCCUUCGAUGGCGCGAUAGCGCCAACGUUCUCAACUAUGACACGCAUAACGCCUGCUCUGGUGAAUGGAGUUUAUCAUG, the “polymerase ribozyme fitness (log ratio)” value is at most -4.2.
The result for GGCUCUUCUCGAUCUAACAAAAAAGACAAAUCUGCCACAAAGCUUGAGAUCAUCUUCGGAUGCAGAGGCGGCAGCCUUCGGUGGCGCGAUAGCGCCAACGUUCUCAACUAUGACACGCAAAACGCGUGCUCCGUUGAAUGGAGUUUAUCAUG reads -1.07.
For the variant GGCUCUUCUCGAUCUAACAAAAAAGACAAAUCUACCACAAAGCUUGAGAGCAUCUUCGGAUGCAGAGGCGGCAGCCUUCGGUGGCGCGAUAGCGCGAACGUUCUCAACUAUGACACGCAAAACGCGUGCUCCGUUGAAUGGAGUUUAUCAUG, the “polymerase ribozyme fitness (log ratio)” value is -3.63.
The result for GGCUCUUCUCGAUCUAACAAAAAAGACAAAUCUGCCACAAAGCUUGAGAGCAUCUUCCGAUGCAGAGGCGGCAGCCUUCGGUGGCGCGAUAGCGGCAACGUUCUCAACUAUGACACGCAAAACGCGUGAUCCGUUGAAUGGCGUUUAUCAUG reads at most -4.2; that for GGCUCUUCUAUAUCUAACAAAAAAGACAAAUCUGCCACAAAGCUUGAGAGCAUCAUCGGAUGCAGAGGCGGCAGCCUUCGCUGGUGCGAUAGCGCCAACGUUCUCAACUAUGACACGCAAAACGCGUACUCCGUUGAAUGGAGUUUAUCAUG, at most -4.2; that for GGCUCUUCUCGAUCUAACAAAUAAGACAAAUCUGCCACUAAGCUUGAGCGCAUCUUCGGAGGCAGAGGCGGCAGCCUUCGGUGGCGCCAUAGCGCCAACGUUCUCAACUAUGACACGCAAAACGCGUGCUCCGUUGAAUGGAGUUUAUCAUG, at most -4.2.
On to GGCUCUUCUCGAUCUAACAAAAAAGACAAAUCUGCCACAAAGCUUGAGAGCAUCUUCGGAUGCAGAGGAGGCAGCCUUCGGUGGCGGGAUAGCGCCAACGUUCUCAACUAUGACACGCAAAACGCGUGCUCCGUUGAAUGGAGUUCAUUAGG, for which the “polymerase ribozyme fitness (log ratio)” value is at most -4.2.
Take GGCUCUUCUCGAUCUAACAAAAAAGACAAAUCUGCCCCAAAGCUUGAGAGCAUCUUCGGAUGCAGAGGCGGGAGCCUUCGGUGGCGCGAUAGCGGCAACGUUCUCAACUACGACACGCAAAACGCGUGCUCCGUUGAAUGGAGUUUAUCAUG: the “polymerase ribozyme fitness (log ratio)” value was at most -4.2.
Regarding GGCUCUUCUCGAUGUAACAAAAAAGACAAAUCUGCCACCAAGCUUGAGAGCAUCUUCGGAUGCAGAGGCGGCAGCCUUCGUUGGCGCGAUAGCGCUAACGUUCUUAACUAUGACACGCAAUACGCGUGCUCCGCCGAAUGGAGUUUACCAUG, the “polymerase ribozyme fitness (log ratio)” value was at most -4.2.
For the variant GGCUCUUCUCGAUCUAACAAAAAAGACAAAUCUGCCACAAAGCUUCAGGGCAUCUUCGGAUGCAGAGGCGGCAGCCUUCGGUGGCGCGAUAACGCCAACGUUCGCAACUAUGUCACGCAAAACACGUGCUCCGUUGAAUGGUGUUUAUCAUG, the “polymerase ribozyme fitness (log ratio)” value was at most -4.2.
The result for GGCUCUUCUCGUUCUAACAAAAAAGACAAAUCUGCCACAAAGCUUGAGAGCAUCUACGGAUGCAGAGGCGGCAGCCUUCGGUGGCGCGAUAGAGCCAUCGUUCUCAGCUAUGACACGCAAAACGCGUGUUCCGUUGAAUGGAGUUUAUCAUG reads at most -4.2; that for GGCUGUUCUCGAUCUAACAAAAAAGACAAAUCUGCCAGAGAGCUUGAGGGCAUCUUCGGUUGCAGAGGCGGCAGCCUUCGGUGGCGCGAUAGAGCCAACGUUCUCAACUAUGACACGCAAGACGCGUGCUCCGUUGAAUGGAGUUUAUCAUG, at most -4.2.
The same measure for GGCUCUUCUCGAUCUAACAAAAAAGACAAAUCUGCCACAAAGCUUGAGAGCAUCUUCGGAUGCAGAGGCGGCAGCCUUCGGUGGCGCGAUAGUGCCAACGUUCUCAACUAUGACACGCACAACGCGUGCUCCAUUGAAUGGAGUUUAUCAUG: at most -4.2; for GGCUCUUCUCGAUCUAACAACAAAGACCAAUCUGCCACAAAGCUUGAGAGCAUCUUCGGAUGCAGAGGCGGCAGCCUUCGGUGGCGCGAUAGCGCCAACGUUCUCAACUAUGACACGCAAAACGAGUGCUCCGUUGAAUGGAGUUUAUCAUG: at most -4.2; for GGCUCUUCUCGAUCUAACAAACAAGACAAAUCUGCCACAAAGCUUGAGAUCAUCUUCGGAUGCAGAGGCGGCAGCCUUCGGUGGGGCGAUAGCGCCAACGUUCUCAACUAUGACACGCAAUACGGUUGCUCCGUUGAAUGGAGUUUCUCAUG: at most -4.2.
As for GGCUCUUCUCGAUCUAACAAAUAAGACAAAUCUGCCACAAAGCUUGAGAGCAUCUUCGGAUGCAGAGGCGGCAGCCUUCGGUGGGGCGAUAGCGCCAACGUUCUCAACUAUGACACGCAAAACGCGUGCUCCGUUGAAUGGAGUUUAUCAUG, the “polymerase ribozyme fitness (log ratio)” value is -2.18.
The same measure for GGCUCUUCUCGAUCUAACAAAAAAGACAAAUCUGCCACAAAGCUUGAGACCAUCUUCGGAUGCAGAGGCGGCAGGCUUCAGUGGCGCGAUAGCGCCAACGUUCUCAACUGUGACACGCAAAACGCGUGCUCCGUUGCAUGGAGUUUGUCGUG: at most -4.2; for GGCUCUUCUCGAUCUAACAUAAAAGACAAAUCUGCCACAAAGCUUGAGAGCAUCAUAGGAUGCAGAGGCGGCAGCCAUCGGGUGCGAGAUAGCGCCAACGUUCUCAACUAUGACACGCAAUACGCGUGCUCCCUUGAAUGGAGUUUAUCAUG: at most -4.2; for GGCUCUUCUCGAUCUAACAAAAAAGACAAAUCUGCCACAAAGUUUGAGAGCAUCUUCGGAUGCAGACGCGGCAGCCUUCGGUGGCACGAUAGCGCCAACGUUCUCAACUAUGACACGCAAAACGCGUGCUCCGUUGAAUGGAGUUUAUCAUG: at most -4.2.
Regarding GGCUGUUCUCGAUUUAACAUAAAAGACAAAUCUGCAACAAAGCUUGAGAGCAUAUUCGGAUGCAGAGGCGGCAGCCUUCGGUGGGGCUAUAGCGCCAGCGUUCUCAACUAUGACACGCAAAACGCGUGCUCCGUUGAAUGGAGUUUAUCAUG, the “polymerase ribozyme fitness (log ratio)” value was at most -4.2.
As for GGCUCUUCUCGAUCUAACAAAAAAGACAAAUCUGCCACAAGGCUUGAGAGCAUCUUCGGAUGCAGAGGCGGCAGCCUUCGGUGGGGCGAUAGCGCCAACGUUCUCAACUAUGACACGCAAAACGCGUGCUCCGUUGAAUGGAGUUUAGCAUG, the “polymerase ribozyme fitness (log ratio)” value was at most -4.2.
The result for GGCUCUUCUCUAUCUAACAAAAAAGACAAAUCUGCCACAAAGCUUGAGAGCAUCUUCGGAUGUAGAGGCGGCAGCAUUCGGUGGCGGGAUAGCGCCAACGUUCUCAACUAUGACACGCAAAACGCGUGCUCCGUUGAAUGGAGUUUAUCAUG reads at most -4.2; that for GGCUCUUCUGGAUCUAACAAAAAAGACAAAUCUGCCACAAAGCUUGAGAGCAUCUUAGGAUGCAGAGGCGGCAGCCUUCGGUAGCGCGAUAGCGCCAACGUUCUCAACUAUGACACGCAAAACGCGUGCUCCGUUGAAUGGAGUUUAUCAUG, -3.78; that for GGCUCUUCUCGAUCUAACAAAAAUGACAAAUCUGCCACAAAGCUUGAGAGCAUCUUCGGAUGCAGAGGCUGCAGCCUUCGGUGGCGCCAUAGCACCAACGUUCUGAACUAUGACACGCAAAACGCGUGCUCCGUUGAAUGGAGUCUAUCAUG, at most -4.2.
The result for GGCUCUUCUCGAUCUAACAAAAAAGACAAAUCUGCCACAAAGCUUGAGAGCAUCUUCGGAUGCAGAGGCCGCAGCCUUCGGUGGCGGGAUAGCGCGAACGUUCUCAGCUAUGACACGCAAAACGCGUGCUCCGUUGAAUGGAGUUGAUCAUG reads at most -4.2.

These data come from the RNAGym collection of RNA variant scans (doi:10.1073/pnas.2313332121).
